Experimental data taken from the supplement of paper PMC11417369.
± gives the standard deviation of the averaged measurements. The list shows a part of the results.

Each sequence was assayed on PfAP2-EXP AP2 domain (GST-tagged) (assay: gcPBM binding intensity (ln(normalized median fluorescence intensity)); higher = stronger DNA binding).
Outline: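 An Agilent 4 × 180k array of primer-extended double-stranded 36-bp intergenic genomic probes, with negative controls, was incubated for 1 h with GST-tagged P. falciparum DNA-binding domains expressed in E. coli. Alexa488 anti-GST antibody detected bound protein, scanned at 488 nm. Binding intensity is the highest Masliner-normalised natural-log median intensity across replicate spots of either probe orientation.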
With “ATAAAGGTTTTCCAAGCATGCCACATAGTGACATAC [TGCATGCA_site193]” the “gcPBM binding intensity (ln)” value was 8.39 ± 0.34.
With “CAATATAAAATAAAATGTACTTGTAGTAAAGGGATA [XGTACX_site1452]” the “gcPBM binding intensity (ln)” value was 8.79 ± 0.35.
For “GATGAGGACAAACACACACACATAAGTTGATACATA [CACACA_site3424]”, the “gcPBM binding intensity (ln)” value was 8.69 ± 0.4.
In the case of “AGATAGATACATACACGTACATATATATATACACAT [XGTACX_site4755]”, the “gcPBM binding intensity (ln)” value is reported as 8.68 ± 0.33.
For “TTAGATAGATTTGTACGTACTTATTATAACGTATCA [XGTACX_site5067]”, the “gcPBM binding intensity (ln)” value was 8.53 ± 0.13.
“AATTTATAAATAATTAATTTGATAAATTATAAAGGG [GTGCAC_negctrl_site544]” was tested, and the “gcPBM binding intensity (ln)” value was 8.57 ± 0.37.
For “ACATATTTATATGTCTGTACAAATATGCAATTTTTT [XGTACX_site5516]”, the “gcPBM binding intensity (ln)” value was 8.27 ± 0.31.
With “AAAAAAATTAAATGGGGTACAATAAGGGTCAAATAT [XGTACX_site8669]” the “gcPBM binding intensity (ln)” value was 9.08 ± 0.52.
In the case of “GGATAATCATACGAAGCATGCTGAATTTCCAAATAA [TGCATGCA_site1013]”, the “gcPBM binding intensity (ln)” value is reported as 8.7 ± 0.47.
With “AAAAAAAAAAATGGCTGTACATAATATTTAAATAGG [XGTACX_site4286]” the “gcPBM binding intensity (ln)” value was 8.86 ± 0.43.
“TTTTATTATATATATTGTACATATATTTTTATTTTT [XGTACX_site1564]” was tested, and the “gcPBM binding intensity (ln)” value was 8.62 ± 0.33.
“AAAAAAAAAAAAAACACACATACATACATACATATA [CACACA_site4121]” was tested, and the “gcPBM binding intensity (ln)” value was 8.55 ± 0.16.
In the case of “ATATTTATAACTTGGTGTACTTTGAAAAAAAAAAAA [XGTACX_site5194]”, the “gcPBM binding intensity (ln)” value is reported as 8.38 ± 0.26.
In the case of “TTATATTAGCCGATGGTGCATATATTTATAGGAAAA [GTGCAC_site9518]”, the “gcPBM binding intensity (ln)” value is reported as 8.63 ± 0.2.
“ATAATTTTTTAGATCACACATATAAATAAATAAATA [CACACA_site5175]” was tested, and the “gcPBM binding intensity (ln)” value was 8.3 ± 0.39.
“TAATAAATGACAAATTAACACACATATATTATATAT [CACACA_site9294]” was tested, and the “gcPBM binding intensity (ln)” value was 8.39 ± 0.59.
In the case of “CGCTCTCTTTAATATTGTACATATATATTATATATA [XGTACX_site7017]”, the “gcPBM binding intensity (ln)” value is reported as 8.77 ± 0.35.
“TACAAAAATATATAAACACACAAATATAATATATAT [CACACA_site2942]” was tested, and the “gcPBM binding intensity (ln)” value was 8.64 ± 0.38.
In the case of “ATAAATCAAATGCACACACACAAAAAAAAAAAAAAA [CACACA_site6221]”, the “gcPBM binding intensity (ln)” value is reported as 8.67 ± 0.21.
In the case of “TATATATAATATTTTTCACACACCATTTCCTTAAAC [CACACA_site1341]”, the “gcPBM binding intensity (ln)” value is reported as 8.52 ± 0.42.
With “TGTATCTATAATAAAACACACATTTTTAATGTGCTC [CACACA_site6788]” the “gcPBM binding intensity (ln)” value was 8.14 ± 0.3.
With “TTTTTTTTTTTTTTTTGTACATAATAAATGTTCTTA [XGTACX_site6754]” the “gcPBM binding intensity (ln)” value was 8.21 ± 0.54.
With “ATAGATATAACATATGCATGTAAAATATAACCACTC [TGCATGCA_site60]” the “gcPBM binding intensity (ln)” value was 8.98 ± 0.042.
For “AATATATGTATATCCACACACATATATATATATATA [CACACA_site1633]”, the “gcPBM binding intensity (ln)” value was 10 ± 0.41.
In the case of “TATTTTGTATTCATTTGTCACATATAATAGATAGGA [TGCATGCA_negctrl_site9]”, the “gcPBM binding intensity (ln)” value is reported as 8.69 ± 0.32.
With “TGTGCGGAAATAAGTGCACACATAGATATATGTATT [CACACA_site9227]” the “gcPBM binding intensity (ln)” value was 8.87 ± 0.28.
In the case of AATAAATAGAAAGAGGTGCTACATTATATTATTTAT, the “gcPBM binding intensity (ln)” value is reported as 8.49 ± 0.25.
“TTATACGAAGTACGTACACACACTTATATGTTACTA [CACACA_site4019]” was tested, and the “gcPBM binding intensity (ln)” value was 8.81 ± 0.32.
“TATTTAGAAATAAATACACACATACATTTTTGTATA [CACACA_site4557]” was tested, and the “gcPBM binding intensity (ln)” value was 8 ± 0.4.
For “GTTTATTTTTTCATTTGTACACATAAATAAATATAT [XGTACX_site7752]”, the “gcPBM binding intensity (ln)” value was 8.93 ± 0.27.
“TTAATTATATTATGCACACACAATTGGAAAAAAAAT [CACACA_site1958]” was tested, and the “gcPBM binding intensity (ln)” value was 8.78 ± 0.19.
“GGTATATATTCTATCACACATATTTCCATGAAAATA [CACACA_site4728]” was tested, and the “gcPBM binding intensity (ln)” value was 8.57 ± 0.014.
“TCAACTTGATTTATATGTACACATATAAGTAATTAT [XGTACX_site1798]” was tested, and the “gcPBM binding intensity (ln)” value was 8.43 ± 0.33.
With “AAAAATATGCTTCCATGTACTTAAAAAAAAAATTTA [XGTACX_site3617]” the “gcPBM binding intensity (ln)” value was 8.21 ± 0.34.
“ACGTTAGGCTTATTTGCACACTTGTATTAAAATTTT [CACACA_site4854]” was tested, and the “gcPBM binding intensity (ln)” value was 9.11 ± 0.4.
With “AAAAAAAATTTTCTTCTGTTGTATTTTTTATACGTT [GTGCAC_negctrl_site477]” the “gcPBM binding intensity (ln)” value was 8.78 ± 0.42.
For “TATACAAACTATGATGCACACATATATATATGTATA [CACACA_site8327]”, the “gcPBM binding intensity (ln)” value was 8.58 ± 0.26.
For “AAAAAAAAGAAAAAAACACACAATGGAAAAAATGTA [CACACA_site3675]”, the “gcPBM binding intensity (ln)” value was 8.76 ± 0.74.
In the case of “AAAAAAAAAAAAAAAAGTACACATAATTGTATATGT [XGTACX_site6339]”, the “gcPBM binding intensity (ln)” value is reported as 8.44 ± 0.21.
With “TTACATATATTGGGGTGTACATATATTTTCCTTCAC [XGTACX_site6224]” the “gcPBM binding intensity (ln)” value was 9.12 ± 0.56.
In the case of “AAATCATATTCTTATTTTATTTTTTTTATTTTTTAT [XGTACX_negctrl_site166]”, the “gcPBM binding intensity (ln)” value is reported as 8.44 ± 0.32.
“GTTATATGAACTTATATACACACCATTTTTGTAAAT [CACACA_site695]” was tested, and the “gcPBM binding intensity (ln)” value was 8.56 ± 0.59.
For “TGTAGATATTTTTGGGGTACTTTATAAAGAACTAGT [XGTACX_site5635]”, the “gcPBM binding intensity (ln)” value was 8.87 ± 0.4.
With “GAAAAACAAATATATTAACACACAAACATATAAACA [CACACA_site9315]” the “gcPBM binding intensity (ln)” value was 8.77 ± 0.44.
“ATAAAATCAACAAATCAGGATGTCACGTAAATATCA [CACACA_negctrl_site1009]” was tested, and the “gcPBM binding intensity (ln)” value was 8.71 ± 0.54.
With “ATGAAAAAGTGCTGGATTCTAAAGAAAAAAAAAAAA [CACACA_negctrl_site962]” the “gcPBM binding intensity (ln)” value was 8.51 ± 0.51.
For “AAATATTGTTTTTTATGTACTTATTTTTATTTATTT [XGTACX_site3481]”, the “gcPBM binding intensity (ln)” value was 8.78 ± 0.43.
For ATATTTTATATATTTGTGCACAATATTATAATATAT, the “gcPBM binding intensity (ln)” value was 8.69 ± 0.2.
In the case of “TTTATTTATTATTAAAGTACTAAATTATATTATTAT [XGTACX_site2565]”, the “gcPBM binding intensity (ln)” value is reported as 8.04 ± 0.29.
In the case of “AGGCATAATTAAAAGTAACAATTATGGAAACGGAGT [GTGCAC_negctrl_site623]”, the “gcPBM binding intensity (ln)” value is reported as 8.93 ± 0.42.
In the case of “AAAAAAAAAAAAAACACACACATGCACCTCATATTA [CACACA_site556]”, the “gcPBM binding intensity (ln)” value is reported as 8.85 ± 0.23.
With “AAAAAAAAAAAAAAATGTACATATAAATAAATATAT [XGTACX_site7248]” the “gcPBM binding intensity (ln)” value was 8.51 ± 0.42.
“ACAACATAGAGGGGCACACACATATATACATAAAAA [CACACA_site6954]” was tested, and the “gcPBM binding intensity (ln)” value was 8.77 ± 0.53.
With “TAATATCCATATAAAACACACATCAAGGTTGTTAAC [CACACA_site175]” the “gcPBM binding intensity (ln)” value was 8.5 ± 0.4.
“AATTCATATACAAAAAGTACAAACGAAAAATAAAAA [XGTACX_site2900]” was tested, and the “gcPBM binding intensity (ln)” value was 8.87 ± 0.58.
For “TATGTGCACCCATATACACACACAAATACAATGATA [CACACA_site8295]”, the “gcPBM binding intensity (ln)” value was 9.99 ± 1.4.
With “GTTATATAAAAATATTGTACATTCTATATAAAGTCA [XGTACX_site4418]” the “gcPBM binding intensity (ln)” value was 8.41 ± 0.26.
